# Results taken from the supplement of paper PMC8728848.
# The list shows a part of the results.
# B1: Mg1lysM (Mycosphaerella graminicola) (protein)
# chain: QRNPITITPQFDCGATNSQQYVARSGDTLTKIAQEIYHDVVGVCDIARANNLADPNRIDAGTPYTIPINCQTYDRNSCL
# Legend:
# Experiment in all cases: glycan array binding signal (z-score within array); higher = stronger binding
# Conditions in all cases: glycan notation: IUPAC condensed, linker removed
# [1] = target: Gal(a1-6)Glc
# Outline: (§1)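 Arrays were curated from the Consortium for Functional Glycomics database, 3228 in total, and kept only where the protein sequence was available. Binding is expressed as a within-array Z-score. This score was averaged across arrays of the same protein sequence at different concentrations or buffers and across linkers, and negative values can be read as non-binding.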
# [2] = target: Gal(b1-2)Gal
# Outline: as §1
# [3] = target: Gal(b1-3)Gal
# Outline: as §1
# [4] = target: Gal(b1-3)Gal(b1-4)GlcNAc
# Outline: as §1
# [5] = target: Gal(b1-3)GalNAc
# Outline: as §1
# [6] = target: Gal(b1-3)GalNAc(a1-3)[Fuc(a1-2)]Gal(b1-4)Glc
# Outline: as §1
# [7] = target: Gal(b1-3)GalNAc(a1-3)[Fuc(a1-2)]Gal(b1-4)GlcNAc
# Outline: as §1
# [8] = target: Gal(b1-3)GalNAc(b1-3)Gal
# Outline: as §1
# [9] = target: Gal(b1-3)GalNAc(b1-3)Gal(a1-4)Gal(b1-4)Glc
# Outline: as §1
# [10] = target: Gal(b1-3)GalNAc(b1-4)Gal(b1-4)Glc
# Outline: as §1
# [11] = target: Gal(b1-3)GalNAc(b1-4)[Neu5Ac(a2-3)]Gal(b1-4)Glc
# Outline: as §1
# [12] = target: Gal(b1-3)GlcNAc
# Outline: as §1
# [13] = target: Gal(b1-3)GlcNAc(a1-3)Gal(b1-4)GlcNAc
# Outline: as §1
# [14] = target: Gal(b1-3)GlcNAc(a1-6)Gal(b1-4)GlcNAc
# Outline: as §1
# [15] = target: Gal(b1-3)GlcNAc(b1-2)Man
# Outline: as §1
# [16] = target: Gal(b1-3)GlcNAc(b1-2)Man(a1-3)[Gal(b1-3)GlcNAc(b1-2)Man(a1-6)]Man(b1-4)GlcNAc(b1-4)GlcNAc
# Outline: as §1
# [17] = target: Gal(b1-3)GlcNAc(b1-2)Man(a1-3)[Gal(b1-3)GlcNAc(b1-2)Man(a1-6)]Man(b1-4)GlcNAc(b1-4)[Fuc(a1-6)]GlcNAc
# Outline: as §1
# [18] = target: Gal(b1-3)GlcNAc(b1-2)Man(a1-3)[GlcNAc(b1-4)][Gal(b1-3)GlcNAc(b1-2)Man(a1-6)]Man(b1-4)GlcNAc(b1-4)GlcNAc
# Outline: as §1
# [19] = target: Gal(b1-3)GlcNAc(b1-2)[Gal(b1-3)GlcNAc(b1-6)]Man(a1-6)[Gal(b1-3)GlcNAc(b1-2)Man(a1-3)]Man(b1-4)GlcNAc(b1-4)GlcNAc
# Outline: as §1
# [20] = target: Gal(b1-3)GlcNAc(b1-3)Gal(b1-3)GlcNAc
# Outline: as §1
# [21] = target: Gal(b1-3)GlcNAc(b1-3)Gal(b1-4)Glc
# Outline: as §1
# [22] = target: Gal(b1-3)GlcNAc(b1-3)Gal(b1-4)GlcNAc
# Outline: as §1
# [23] = target: Gal(b1-3)GlcNAc(b1-3)Gal(b1-4)GlcNAc(b1-2)Man(a1-3)[Gal(b1-3)GlcNAc(b1-3)Gal(b1-4)GlcNAc(b1-2)Man(a1-6)]Man(b1-4)GlcNAc(b1-4)GlcNAc
# Outline: as §1
# [24] = target: Gal(b1-3)GlcNAc(b1-3)Gal(b1-4)GlcNAc(b1-2)[Gal(b1-3)GlcNAc(b1-3)Gal(b1-4)GlcNAc(b1-6)]Man(a1-6)[Gal(b1-3)GlcNAc(b1-3)Gal(b1-4)GlcNAc(b1-2)Man(a1-3)]Man(b1-4)GlcNAc(b1-4)[Fuc(a1-6)]GlcNAc
# Outline: as §1
# [25] = target: Gal(b1-3)GlcNAc(b1-3)Gal(b1-4)GlcNAc(b1-3)Gal(b1-4)GlcNAc(b1-2)[Gal(b1-3)GlcNAc(b1-3)Gal(b1-4)GlcNAc(b1-3)Gal(b1-4)GlcNAc(b1-6)]Man(a1-6)[Gal(b1-3)GlcNAc(b1-3)Gal(b1-4)GlcNAc(b1-3)Gal(b1-4)GlcNAc(b1-2)Man(a1-3)]Man(b1-4)GlcNAc(b1-4)[Fuc(a1-6)]GlcNAc
# Outline: as §1
# [26] = target: Gal(b1-3)GlcNAc(b1-3)Gal(b1-4)GlcNAc(b1-6)[Gal(b1-3)GlcNAc(b1-3)]Gal(b1-4)Glc
# Outline: as §1
# [27] = target: Gal(b1-3)GlcNAc(b1-3)Gal(b1-4)[Fuc(a1-3)]GlcNAc
# Outline: as §1
# [28] = target: Gal(b1-3)GlcNAc(b1-3)Gal(b1-4)[Fuc(a1-3)]GlcNAc(b1-6)[Gal(b1-3)GlcNAc(b1-3)]Gal(b1-4)Glc
# Outline: as §1
# [29] = target: Gal(b1-3)GlcNAc(b1-3)GalNAc
# Outline: as §1
# [30] = target: Gal(b1-3)GlcNAc(b1-6)Gal(b1-4)GlcNAc
# Outline: as §1
# [31] = target: Gal(b1-3)GlcNAc(b1-6)GalNAc
# Outline: as §1
# [32] = target: Gal(b1-3)GlcNAc(b1-6)[Gal(b1-3)]GalNAc
# Outline: as §1
# [33] = target: Gal(b1-3)GlcNAc6S
# Outline: as §1
# [34] = target: Gal(b1-3)[Fuc(a1-4)]GlcNAc
# Outline: as §1
# [35] = target: Gal(b1-3)[Fuc(a1-4)]GlcNAc(b1-2)Man
# Outline: as §1
# [36] = target: Gal(b1-3)[Fuc(a1-4)]GlcNAc(b1-2)Man(a1-3)[Gal(b1-3)[Fuc(a1-4)]GlcNAc(b1-2)Man(a1-6)]Man(b1-4)GlcNAc(b1-4)[Fuc(a1-6)]GlcNAc
# Outline: as §1
# [37] = target: Gal(b1-3)[Fuc(a1-4)]GlcNAc(b1-3)Gal(b1-3)[Fuc(a1-4)]GlcNAc
# Outline: as §1
# [38] = target: Gal(b1-3)[Fuc(a1-4)]GlcNAc(b1-3)Gal(b1-4)[Fuc(a1-3)]GlcNAc
# Outline: as §1
# [39] = target: Gal(b1-3)[Fuc(a1-4)]GlcNAc(b1-6)GalNAc
# Outline: as §1
# [40] = target: Gal(b1-3)[GlcNAc(b1-6)]GalNAc
# Outline: as §1
# [41] = target: Gal(b1-3)[Neu5Ac(a2-6)]GalNAc
# Outline: as §1
# [42] = target: Gal(b1-3)[Neu5Ac(a2-6)]GlcNAc(b1-4)Gal(b1-4)Glc
# Outline: as §1
# [43] = target: Gal(b1-3)[Neu5Ac(b2-6)]GalNAc
# Outline: as §1
# [44] = target: Gal(b1-4)Gal
# Outline: as §1
# [45] = target: Gal(b1-4)GalNAc(a1-3)[Fuc(a1-2)]Gal(b1-4)GlcNAc
# Outline: as §1
binder,measurement,setting,value
B1,glycan array binding signal (z-score),[1],-0.075
same,glycan array binding signal (z-score),[2],-0.075
same,glycan array binding signal (z-score),[3],-0.061
same,glycan array binding signal (z-score),[4],-0.084
same,glycan array binding signal (z-score),[5],-0.07
same,glycan array binding signal (z-score),[6],-0.088
same,glycan array binding signal (z-score),[7],-0.092
same,glycan array binding signal (z-score),[8],-0.052
same,glycan array binding signal (z-score),[9],-0.06
same,glycan array binding signal (z-score),[10],-0.049
same,glycan array binding signal (z-score),[11],-0.08
same,glycan array binding signal (z-score),[12],-0.069
same,glycan array binding signal (z-score),[13],-0.067
same,glycan array binding signal (z-score),[14],-0.088
same,glycan array binding signal (z-score),[15],-0.072
same,glycan array binding signal (z-score),[16],-0.049
same,glycan array binding signal (z-score),[17],-0.079
same,glycan array binding signal (z-score),[18],0.125
same,glycan array binding signal (z-score),[19],-0.066
same,glycan array binding signal (z-score),[20],-0.087
same,glycan array binding signal (z-score),[21],-0.059
same,glycan array binding signal (z-score),[22],-0.07
same,glycan array binding signal (z-score),[23],-0.05
same,glycan array binding signal (z-score),[24],0.02
same,glycan array binding signal (z-score),[25],-0.044
same,glycan array binding signal (z-score),[26],-0.069
same,glycan array binding signal (z-score),[27],-0.089
same,glycan array binding signal (z-score),[28],-0.078
same,glycan array binding signal (z-score),[29],-0.087
same,glycan array binding signal (z-score),[30],-0.047
same,glycan array binding signal (z-score),[31],-0.044
same,glycan array binding signal (z-score),[32],-0.054
same,glycan array binding signal (z-score),[33],-0.073
same,glycan array binding signal (z-score),[34],-0.066
same,glycan array binding signal (z-score),[35],-0.063
same,glycan array binding signal (z-score),[36],-0.074
same,glycan array binding signal (z-score),[37],-0.072
same,glycan array binding signal (z-score),[38],-0.089
same,glycan array binding signal (z-score),[39],-0.059
same,glycan array binding signal (z-score),[40],-0.084
same,glycan array binding signal (z-score),[41],-0.067
same,glycan array binding signal (z-score),[42],-0.077
same,glycan array binding signal (z-score),[43],-0.093
same,glycan array binding signal (z-score),[44],-0.077
same,glycan array binding signal (z-score),[45],-0.076
